# Experimental data from paper PMC7819943, “Rice protein-binding microarrays: a tool to detect cis-acting elements near promoter regions in rice”.
# Some of the results follow.
# Biological target: T1, OsWOX13 (Oryza sativa, UniProt Q5QMM3 1-267)
# T1 sequence: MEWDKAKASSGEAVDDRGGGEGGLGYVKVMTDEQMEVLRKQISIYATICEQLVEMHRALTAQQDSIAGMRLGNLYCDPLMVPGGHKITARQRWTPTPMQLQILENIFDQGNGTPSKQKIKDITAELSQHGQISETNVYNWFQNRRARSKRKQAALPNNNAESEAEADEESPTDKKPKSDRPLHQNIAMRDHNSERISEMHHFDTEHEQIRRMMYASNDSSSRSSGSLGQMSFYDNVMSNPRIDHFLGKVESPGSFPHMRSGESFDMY
# Experiment: protein-binding microarray (RPBM); PBS, 2% BSA, 51.3 ng/ul salmon testes DNA, 50 uM zinc acetate, 200 nM TF, 25 C, 1 h; high values mean tight binding
# Conditions: protein: recombinant; tags: N-terminal polyhistidine and DsRed monomer fusion (pET32a); label: CyDye5-dUTP incorporated in the synthesized complementary strand; 3' TTTTT single-stranded linker to array surface; dsDNA, one strand shown
# Procedure, shortened: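 Per-feature fluorescence intensity (arbitrary units), read on an Axon 4000B scanner, is the binding signal. Transcription factors carrying an N-terminal polyhistidine tag and DsRed fusion were expressed in E. coli BL21-CodonPlus and purified on Ni–NTA. A custom Agilent array, made double-stranded by primer extension with Cy5-dUTP and blocked with 2% BSA, was incubated with 200 nM protein in PBS, 2% BSA, salmon testes DNA and 50 µM zinc acetate at 25 °C for 1 h and then washed.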
row,Sequence,binding signal
1,CTTCTGTGATGGGAATGGACAGACACCCTGCTGCAGCTCTCGGAGTCACCTAGTGCAG,10600 fluorescence intensity (a.u.)
2,CCAAACAATTTCAGTTTCATCTAAATTGGAGTGGAGCTGGCGGAGTCACCTAGTGCAG,11400 fluorescence intensity (a.u.)
3,CAGCCCTACTATAGTAATTGGATTGGCTACCCATGGATCACGGAGTCACCTAGTGCAG,6410 fluorescence intensity (a.u.)
4,ATTTTCCCTGATCATTAATTATTGCATCGTTACTAATTAACGGAGTCACCTAGTGCAG,5500 fluorescence intensity (a.u.)
5,CCTGGTGAATTAATTGGGTAATTAATGAGCACACTGACGCCGGAGTCACCTAGTGCAG,49500 fluorescence intensity (a.u.)
6,TCAAAATGTCTAATAATTTGGGACGGAGACACTAGTATTCCGGAGTCACCTAGTGCAG,4940 fluorescence intensity (a.u.)
7,CGTGTTGATTGTGTCCTTGGCACCTTGCAATTCCATCCCCCGGAGTCACCTAGTGCAG,26500 fluorescence intensity (a.u.)
8,GTATGTGATTTTCTTTAATTAGAGTTCTTGCCTAAGGTTGCGGAGTCACCTAGTGCAG,38300 fluorescence intensity (a.u.)
9,CCCACCCGCCAGTCTAATTGGGTAGACCCAGTCCAAAATACGGAGTCACCTAGTGCAG,3220 fluorescence intensity (a.u.)
10,ATAAATTTGATCGTAAATGTTGCGATTTGCTAAGACCGTACGGAGTCACCTAGTGCAG,23000 fluorescence intensity (a.u.)
11,TCAAGTTTTGTGATTAAATTGTAACTAAACCTGTAGTTTTCGGAGTCACCTAGTGCAG,5660 fluorescence intensity (a.u.)
12,AATTGATTAATTTTCTTAATCGAACCCATCAAGAAATCCACGGAGTCACCTAGTGCAG,33000 fluorescence intensity (a.u.)
13,ATCAATTGGGTGTGACTGAGTGAGCAACAAGCTATATTCTCGGAGTCACCTAGTGCAG,3980 fluorescence intensity (a.u.)
14,GAAATGTGATTACCTTGTAGTTGGACCAGTCTACTGAGTTCGGAGTCACCTAGTGCAG,25200 fluorescence intensity (a.u.)
15,AAAACTGTTTTATTAATTGTTGGCAGGGGAGAATACCCGTCGGAGTCACCTAGTGCAG,8240 fluorescence intensity (a.u.)
16,TTAAATGCCATTTATTAAATGAGCGATGGTTGGAACGGCGCGGAGTCACCTAGTGCAG,3810 fluorescence intensity (a.u.)
17,AAACTGTAATTTACTCAATTTATTACTTCTACAAACGGACCGGAGTCACCTAGTGCAG,27700 fluorescence intensity (a.u.)
18,CCCTAACATGGAAAAGACTAGATGGAAGACTGACTATGCACGGAGTCACCTAGTGCAG,5070 fluorescence intensity (a.u.)
19,GATGGTTCATAATTAACAGACTCAGTCCCATGATAGTATACGGAGTCACCTAGTGCAG,6380 fluorescence intensity (a.u.)
20,AATGATAGGTGACATCTTTGCCACCAGCTTACCACCACCACGGAGTCACCTAGTGCAG,3880 fluorescence intensity (a.u.)
21,CAAAATTGGCCTGTTCAGTTTCCTCGTAGCTAAACTCTTGCGGAGTCACCTAGTGCAG,11200 fluorescence intensity (a.u.)

row,Sequence,binding signal
1,GTATTAATCATGTTTTATCATCTAACAACAACGAAAATACCGGAGTCACCTAGTGCAG,7970 fluorescence intensity (a.u.)
2,TATCCTGTAATTGACTAAAGAAGCTGCGTCTTGCATGACACGGAGTCACCTAGTGCAG,29000 fluorescence intensity (a.u.)
3,ACTTCCAATTAGGAGTCTGCATCATCCCAGGCAGCAGGGCCGGAGTCACCTAGTGCAG,3670 fluorescence intensity (a.u.)
4,AATAAATTTAGTGACAGAATTATGGCGTCTAATCTGCAAACGGAGTCACCTAGTGCAG,13600 fluorescence intensity (a.u.)
5,ATAAATTGTGATAATTTGATCAAAGTATATATAGTTTTGTCGGAGTCACCTAGTGCAG,28600 fluorescence intensity (a.u.)
6,AGAAAACTGACAAATCGTTTACTCGACTTGACTCGAACTTCGGAGTCACCTAGTGCAG,5930 fluorescence intensity (a.u.)
7,CCTAATTGTGTTTCTATATGGACTCTATACTCTACTTCTACGGAGTCACCTAGTGCAG,24300 fluorescence intensity (a.u.)
8,TAAATAATTAATTAAAGATAAGGCAAGAAATTAATCCAAACGGAGTCACCTAGTGCAG,7760 fluorescence intensity (a.u.)
9,CAAATCATCAAATTTAACCGTTTCAGTGTAGATCAAGGAACGGAGTCACCTAGTGCAG,5330 fluorescence intensity (a.u.)
10,CTTGCCTCAATTATCATTAACAACTGCTAAATATTGGCACCGGAGTCACCTAGTGCAG,9290 fluorescence intensity (a.u.)
11,CATGTCGTCGTCGTGGTGGTGGTGGTGGTGGTGGGGCGGGCGGAGTCACCTAGTGCAG,7730 fluorescence intensity (a.u.)
12,ACCAGATTCACCGTGATTAGTCTCACACTTAATAAATCGACGGAGTCACCTAGTGCAG,4900 fluorescence intensity (a.u.)
13,TGTAATAGTGGGTTAATTAATTAGCTTGCCAGCTTCAGGGCGGAGTCACCTAGTGCAG,21900 fluorescence intensity (a.u.)
14,ATCAAATCAATAATTAAATATATTTTCATAATAAATTTGTCGGAGTCACCTAGTGCAG,20400 fluorescence intensity (a.u.)
15,TCATCAATCATCATCCCTTCTTCACTCTCCCTCGGCAACTCGGAGTCACCTAGTGCAG,28400 fluorescence intensity (a.u.)
16,TATATATATATATATATATATAGTTTTAGATATTTCACAACGGAGTCACCTAGTGCAG,20500 fluorescence intensity (a.u.)
17,TCTTGTAATTATTCTATGTTTAATACTCTAAATTAGCATCCGGAGTCACCTAGTGCAG,20000 fluorescence intensity (a.u.)
18,TTAATTTCAATTTAAAACTACACCATACTTGCTTTGTTTGCGGAGTCACCTAGTGCAG,27700 fluorescence intensity (a.u.)
19,CCTGAGATATTGATTACTACTCTTGTCGTCCGGGACCGATCGGAGTCACCTAGTGCAG,11000 fluorescence intensity (a.u.)
20,CAAAATAATTTTGCTGTTAAGTTGAGGTACCCTCTGGTGACGGAGTCACCTAGTGCAG,5740 fluorescence intensity (a.u.)
21,ATATATTTAATATATTTAATTTACCTATGTATTTAAATAGCGGAGTCACCTAGTGCAG,4660 fluorescence intensity (a.u.)
